According to PMC9405727, “A Setmelanotide-like Effect at MC4R Is Achieved by MC4R Dimer Separation” (Biomolecules, 2022):

Target: T1, MC4R-H158R, P32245
T1 chain: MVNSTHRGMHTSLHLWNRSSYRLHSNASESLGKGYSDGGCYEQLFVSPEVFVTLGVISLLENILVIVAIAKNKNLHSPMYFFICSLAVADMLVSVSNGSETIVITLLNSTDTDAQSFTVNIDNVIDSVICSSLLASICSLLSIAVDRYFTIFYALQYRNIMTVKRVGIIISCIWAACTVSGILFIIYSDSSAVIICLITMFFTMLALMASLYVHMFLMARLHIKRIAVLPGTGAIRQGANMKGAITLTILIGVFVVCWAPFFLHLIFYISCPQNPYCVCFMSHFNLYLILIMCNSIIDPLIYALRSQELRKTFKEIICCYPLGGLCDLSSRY
Experiment: FRET or BRET; NanoBRET in living HEK293 cells co-transfected with a NanoLuc fusion (donor; written as binder) and a HaloTag fusion (acceptor, ligand 618; written as target), NL/HT DNA ratio 1:5; BRET ratio in mBU after subtraction of the no-acceptor control; delta BRET = chimera minus MC4R-WT homodimer
Conditions: remark: other sources report otherwise

- Relative Dimerization Compared to WT (delta BRET): -28.9
B1: MC4R-H158R, P32245 1-332 (receptor)
chain: T1 chain
